{
  "source": "PubChem BioAssay AID463173",
  "about": "(ICCB-Longwood Screening Facility, Harvard Medical School, 2010)",
  "note": "The whole screen tested about 52,000 compounds, of which about 4,300 (8.3%) were called active. No stated cut-off is given here; in the data, active means survival mostly below about 52% (no sharp cut-off); inactive means mostly above about 56%. This is one part of the list.",
  "data": [
    {"system": "DeltatarO mutant", "experiment": "growth inhibition of S. aureus wild type versus tarO mutant, primary screen, teichoic acid synthesis inhibitors, RN4220, OD600 (AID 463173)", "settings": "OD600, 18 h, active compounds read low, screened at 18.75 µg/mL (by protocol)", "values": [
      {"smiles": "O=C(NCCCN1CCN(c2cccc(Cl)c2)CC1)c1ccc2nc(Cc3ccccc3)oc2c1", "survival": "inactive: 102%"},
      {"smiles": "COc1ccc(NC(=O)c2cc(-c3ccccc3F)no2)cc1", "survival": "inactive: 78%"},
      {"smiles": "Cc1cccc(Nc2sc(C(=O)c3ccc(Cl)cc3)c(N)c2C(N)=O)c1", "survival": "inactive: 63%"},
      {"smiles": "COc1cccc(CNC(=O)Cn2nc(C)c3sc4ccccc4c3c2=O)c1OC", "survival": "inactive: 87%"},
      {"smiles": "O=C(Nc1ccccc1)Nc1nnc(SCC(=O)N2CCCCC2)s1", "survival": "inactive: 135%"},
      {"smiles": "Cc1ccc(N2C(=O)CSC23C(=O)N(CC(=O)NCc2ccccc2)c2ccccc23)cc1", "note": "(stereo unspecified)", "survival": "inactive: 98%"},
      {"smiles": "COc1ccc(C2(C(=O)O)CCCC2)cc1OC", "survival": "inactive: 107%"},
      {"smiles": "CCOc1ccc(-n2cc(-c3ccccc3)c3c(NC4CCCC4)ncnc32)cc1", "survival": "inactive: 104%"},
      {"smiles": "O=C(CN1C(=O)C2(SCC(=O)N2c2ccc(F)cc2)c2ccccc21)NC1CCCCC1", "note": "(stereo unspecified)", "survival": "inactive: 80%"},
      {"smiles": "CC1=C(c2ccc(C)c(C)c2)S(=O)(=O)N(Cc2ccc(C(=O)Nc3cc(F)ccc3F)cc2)C1=O", "survival": "inactive: 84%"},
      {"smiles": "NC1=NC2(CCCCC2)N(c2ccc(F)cc2)C(N)=N1", "survival": "inactive: 88%"},
      {"smiles": "Cc1ccc(N2CC(NC(=O)c3cccs3)CC2=O)cc1", "note": "(stereo unspecified)", "survival": "inactive: 94%"},
      {"smiles": "CCc1cccc(CC)c1NC(=O)c1c(C)oc2ccc(O)c(CN3CCCC3)c12", "survival": "inactive: 113%"},
      {"smiles": "CCCCNC(=O)c1ccc2c(c1)N=C(CC)c1ccccc1S2", "survival": "inactive: 70%"},
      {"smiles": "O=C(CCCN1C(=O)c2cccnc2Oc2ccc(Cl)cc21)NCc1ccc(F)cc1", "survival": "inactive: 90%"},
      {"smiles": "CN1CCN(CCNC(=O)c2cnn(-c3ccc(F)cc3)c2C2CCN(C(=O)OC(C)(C)C)CC2)CC1", "survival": "inactive: 86%"},
      {"smiles": "O=C1C(=O)N(C2CCN(C(=O)c3cccc(Cl)c3)CC2)CCN1Cc1ccc(F)cc1", "survival": "inactive: 80%"},
      {"smiles": "CCOc1ccc(S(=O)(=O)N2CCN(Cc3nc4ccc(C)cc4o3)CC2)cc1", "survival": "inactive: 73%"},
      {"smiles": "CCOc1ccc(NC(=O)c2cnc3sc(N4CCOCC4)nn3c2=O)cc1", "survival": "inactive: 97%"},
      {"smiles": "COc1cccc(N2CC(NC(=O)COc3ccccc3F)CC2=O)c1", "note": "(stereo unspecified)", "survival": "inactive: 72%"},
      {"smiles": "Cc1ccc(C)c(NC(=O)CSc2ccc3nc(-c4ccccc4)cn3n2)c1", "survival": "inactive: 90%"},
      {"smiles": "CCOc1ccc(CCNC(=O)Cn2c(-c3cccs3)cc3ccccc32)cc1OCC", "survival": "inactive: 67%"},
      {"smiles": "O=C(Nc1cccc(C(=O)OCc2cc(=O)n3nc(C4CC4)sc3n2)c1)c1cccc(Cl)c1", "survival": "inactive: 80%"},
      {"smiles": "COc1ccc(Nc2oc(/C=C/c3ccccc3OC)nc2C#N)cc1", "survival": "inactive: 79%"},
      {"smiles": "COC(=O)CCN(c1ccccc1)C(CNS(=O)(=O)c1ccccc1)c1ccccc1", "note": "(stereo unspecified)", "survival": "inactive: 111%"},
      {"smiles": "CS(=O)(=O)N(CC(=O)N1CCC(C(N)=O)CC1)c1cccc(C(F)(F)F)c1", "survival": "inactive: 76%"},
      {"smiles": "Cc1ccccc1Nc1nc(N)c(C(=O)c2ccccc2Cl)s1", "survival": "inactive: 92%"},
      {"smiles": "Cc1cc2oc(C(=O)N(Cc3ccc(N(C)C)cc3)Cc3ccco3)c(C)c2cc1Cl", "survival": "inactive: 84%"},
      {"smiles": "CCCCc1ccc(NC(=O)CSc2nc(=O)[nH]c3c2CCCC3)cc1", "survival": "inactive: 74%"},
      {"smiles": "CCn1c(SCC(=O)N2CCc3ccccc32)nnc1C(C)C", "survival": "inactive: 98%"},
      {"smiles": "COc1cccc(-c2cc(C(=O)NCc3ccc(F)cc3)no2)c1", "survival": "active: 30%"},
      {"smiles": "COc1cccc(CNC(=O)CCn2cnc3ccccc3c2=O)c1", "survival": "inactive: 77%"},
      {"smiles": "CC(CCc1ccccc1)NC(=O)Cn1ncc2c3ccccc3n(Cc3ccccc3)c2c1=O", "note": "(stereo unspecified)", "survival": "inactive: 81%"},
      {"smiles": "O=C(CCN1C(=O)c2ccccc2Sc2ncccc21)Nc1ccc(F)cc1", "survival": "inactive: 80%"},
      {"smiles": "CCOC(=O)c1ccc(NC(=O)c2oc3c(c2C)-c2nn(Cc4ccccc4Cl)cc2CC3)cc1", "survival": "inactive: 68%"},
      {"smiles": "CC(C)CNc1ncnc2onc(-c3ccc(Cl)cc3)c12", "survival": "inactive: 71%"},
      {"smiles": "COc1ccc(-c2nnc(SCC(=O)Nc3c(C)cccc3C)nc2-c2ccc(OC)cc2)cc1", "survival": "inactive: 92%"},
      {"smiles": "CS(=O)(=O)N(CCc1ccccc1)CC(=O)O", "survival": "inactive: 88%"},
      {"smiles": "Cc1nc2cc(-c3cccc(F)c3)nn2c(C)c1CCC(=O)NC(C)c1ccccc1", "note": "(stereo unspecified)", "survival": "inactive: 53%"},
      {"smiles": "COc1cc(C(=O)NCCc2sc(-c3cccc(F)c3)nc2C)cc(OC)c1OC", "survival": "inactive: 78%"},
      {"smiles": "O=C(Nc1ccccc1Br)c1cc(CN2CCCC2)on1", "survival": "inactive: 73%"},
      {"smiles": "COC(=O)c1c(NC(=O)C2c3ccccc3Oc3ccccc32)sc2c1CCC(C(C)(C)C)C2", "note": "(stereo unspecified)", "survival": "inactive: 78%"},
      {"smiles": "COc1cc2c(cc1NC(=O)c1ccccc1C)n(C)c(=O)n2C", "survival": "inactive: 65%"},
      {"smiles": "O=C(CSc1oc(-c2ccc(F)cc2)nc1S(=O)(=O)c1ccccc1)NC1CCCCC1", "survival": "inactive: 61%"},
      {"smiles": "CCSc1nnc(NC(=O)c2cc(=O)c3cc(C)ccc3o2)s1", "survival": "inactive: 86%"},
      {"smiles": "CCc1ccc(CNC(=O)c2ccc(-c3nc(CSc4ccc(C)cc4)c(C)o3)cc2)cc1", "survival": "inactive: 67%"},
      {"smiles": "CCc1ccccc1-n1cnc2cc(C(=O)NC3CCCCCC3)ccc21", "survival": "inactive: 49%"},
      {"smiles": "O=C(Nc1ccccc1Cl)[C@H](CSCc1ccccc1)N1Cc2ccccc2C1=O", "survival": "inactive: 58%"},
      {"smiles": "COc1ccccc1N1CCN(S(=O)(=O)c2ccc(F)c(C(=O)Nc3ccc(Cl)cc3C(F)(F)F)c2)CC1", "survival": "inactive: 126%"},
      {"smiles": "O=C(c1ccc2c(c1)CCN2S(=O)(=O)c1ccccc1)N1CCN(c2ccccc2F)CC1", "survival": "inactive: 52%"},
      {"smiles": "CCc1ccc2occ(CC(=O)Nc3ccc(OC)c(Cl)c3)c2c1", "survival": "inactive: 88%"},
      {"smiles": "CCOc1ccc(C(=O)Oc2c(Sc3ccccc3)c(C)nn2C(C)(C)C)cc1OCC", "survival": "inactive: 57%"},
      {"smiles": "Cc1nc(SCC(=O)Nc2ccc(C)c(Cl)c2)cc(-c2ccccc2)n1", "survival": "inactive: 46%"},
      {"smiles": "COc1ccc(CN(Cc2ccco2)C(=O)COc2ccccc2OC)cc1", "survival": "inactive: 74%"},
      {"smiles": "CC(=O)c1ccc(NC(=O)Nc2sc3nc4n(c(=O)c3c2C)CCC(C)CC4)cc1", "note": "(stereo unspecified)", "survival": "inactive: 78%"},
      {"smiles": "CC(C)Oc1ccc(CNC(=O)c2sc3ncccc3c2-n2cccc2)cc1", "survival": "active: 46%"},
      {"smiles": "COc1ccc(-n2nc(C(=O)Nc3ccc(C(C)=O)cc3)nc2-c2ccccc2)cc1", "survival": "active: 49%"},
      {"smiles": "COc1ccc(-c2nnc(SC(C)C(=O)O)o2)cc1", "note": "(stereo unspecified)", "survival": "inactive: 148%"},
      {"smiles": "CSc1ccc(-c2nc3cccc(C)n3c2Nc2ccc3c(c2)OCO3)cc1", "survival": "inactive: 83%"},
      {"smiles": "O=C(CN1C(=O)CSc2ccc(S(=O)(=O)N3CCCC3)cc21)NCc1ccccc1Cl", "survival": "inactive: 87%"},
      {"smiles": "CC1(C)Cc2ccccc2C(=NCCC(=O)O)N1", "survival": "inactive: 79%"},
      {"smiles": "CCCCNC(=O)CCc1c(C)nc2cc(-c3ccccc3)nn2c1C", "survival": "inactive: 81%"},
      {"smiles": "CS(=O)(=O)Nc1ccc(C2=NN(S(C)(=O)=O)C(c3ccc4c(c3)OCO4)C2)cc1", "note": "(stereo unspecified)", "survival": "inactive: 77%"},
      {"smiles": "CC(=O)N1CCCc2cc(S(=O)(=O)N3CCCC(C(=O)NC(C)C)C3)ccc21", "note": "(stereo unspecified)", "survival": "inactive: 79%"},
      {"smiles": "Cc1ccc(OCC(=O)Nc2c(C(=O)c3ccc(Cl)cc3)oc3ccccc23)cc1C", "survival": "inactive: 119%"},
      {"smiles": "Cc1[nH]c2ccccc2c1C1(O)C(=O)N(Cc2ccccc2)c2ccc(Cl)cc21", "note": "(stereo unspecified)", "survival": "active: 24%"},
      {"smiles": "Cc1cc(C)cc(OCCSc2nc3ccc(NC(=O)COc4ccccc4)cc3s2)c1", "survival": "inactive: 58%"},
      {"smiles": "Cc1ccc(OCC(=O)Nc2nonc2-c2ccc(Br)cc2)cc1C", "survival": "inactive: 57%"},
      {"smiles": "COc1ccc(-c2nnc(SCCOc3ccccc3C)o2)cc1OC", "survival": "inactive: 64%"},
      {"smiles": "Cc1cn(C)c(CC(=O)Nc2ccc(F)cc2Cl)c1C(=O)O", "survival": "inactive: 87%"},
      {"smiles": "O=S(=O)(c1ccc(Cl)cc1)c1nc(-c2cccs2)oc1SCc1ccccc1F", "survival": "inactive: 66%"},
      {"smiles": "Cc1cc(C(F)F)n2ncc(C(=O)N3CCCCC3)c2n1", "survival": "inactive: 85%"},
      {"smiles": "O=C(COc1ccccc1)N/N=C/c1ccccc1", "survival": "inactive: 86%"},
      {"smiles": "CCc1ccc(NC(=O)Cn2c(=O)n(CCCC(=O)NCc3ccc4c(c3)OCO4)c(=O)c3ccccc32)cc1", "survival": "active: 93%"},
      {"smiles": "CCS(=O)(=O)NCC(c1ccco1)N1CCN(c2ccc(F)cc2)CC1", "note": "(stereo unspecified)", "survival": "inactive: 71%"},
      {"smiles": "CCOC(=O)c1c(S(=O)(=O)N2CCCC(C(=O)N3CCN(c4cc(C)ccc4C)CC3)C2)c(C)n(C)c1C", "note": "(stereo unspecified)", "survival": "inactive: 83%"},
      {"smiles": "Cc1ccc2c(c1)N(Cc1cccc(C(F)(F)F)c1)C(=O)C(C)O2", "note": "(stereo unspecified)", "survival": "inactive: 105%"},
      {"smiles": "CCn1c(SCC(=O)c2ccc(C)cc2)nnc1C1CC1", "survival": "inactive: 66%"},
      {"smiles": "CCOC(=O)C(CC)N1CCN(Cc2ccc(F)cc2)C(=O)C1=O", "note": "(stereo unspecified)", "survival": "inactive: 85%"},
      {"smiles": "COc1ccc(-c2ccc(NS(=O)(=O)c3cc(C)c(C)cc3C)cc2)nn1", "survival": "inactive: 83%"},
      {"smiles": "CCn1nc(C)c2c(-c3ccccc3)cc(=O)n(C(C)C(=O)Nc3cc(C)ccc3C)c21", "note": "(stereo unspecified)", "survival": "inactive: 73%"},
      {"smiles": "COc1ccc(N2CCN(C(=O)C(C)n3nc(C)c4sc5ccccc5c4c3=O)CC2)cc1", "note": "(stereo unspecified)", "survival": "inactive: 106%"},
      {"smiles": "CCc1ccc(NC(=O)Cn2nc(SC)c(S(=O)(=O)c3ccc(OC)cc3)c2N)cc1", "survival": "inactive: 118%"},
      {"smiles": "CCOC(=O)c1c(NC(=O)C2c3ccccc3Oc3ccccc32)sc2c1CCC(CC)C2", "note": "(stereo unspecified)", "survival": "inactive: 52%"},
      {"smiles": "CCCCC(CC)CNC(=O)CCCCn1c(=O)[nH]c2ccsc2c1=O", "note": "(stereo unspecified)", "survival": "inactive: 63%"},
      {"smiles": "COC(=O)c1sc(N2C(=O)c3oc4ccc(C)cc4c(=O)c3C2c2ccc(O)c(OC)c2)nc1C", "note": "(stereo unspecified)", "survival": "inactive: 180%"},
      {"smiles": "COc1ccc(CCNc2nc(SCc3ccccc3F)nc3ccccc23)cc1OC", "survival": "inactive: 94%"},
      {"smiles": "COC(=O)c1ccc(C(=O)OC)c(NC(=O)c2c(-c3ccccc3)noc2C)c1", "survival": "inactive: 147%"},
      {"smiles": "COc1ccc(OCc2nnc(SCC(=O)NCc3ccco3)o2)cc1", "survival": "inactive: 85%"},
      {"smiles": "COC(=O)c1nnn(CC(=O)Nc2c(C)cccc2C)c1N", "survival": "inactive: 87%"},
      {"smiles": "COc1cc(CN(C(=O)Nc2cccc(Cl)c2)c2ccccn2)cc(OC)c1OC", "survival": "inactive: 68%"}
    ]}
  ]
}
